Assay results from PubChem BioAssay AID504466 (National Center for Advancing Translational Sciences (NCATS), 2011).
The whole screen tested about 330,000 compounds, of which about 4,200 (1.3%) were called active. Inconclusive means that the source gave no clear call. Such entries were picked first, then a sample of the others. The call rests on the fitted dose curve; in most records, active means well fitted activation curve with a large enough effect; inconclusive means small, poorly fitted or top-dose-only effect; inactive means no such curve, though single readings can be large or run the other way. A potency beside an inconclusive call is a rough fit, not a confirmed value.

assay: qHTS screen for small molecules that induce genotoxicity in human embryonic kidney (HEK293T) cells expressing luciferase-tagged ELG1; details: HEK293T ELG1-luciferase reporter, luminescence, 16 h; series mostly up to 46 µM; further: nearly all actives have a fitted effect of over 60% in size
How it was run: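 DMSO vehicle served as control against compound-treated ELG1-luciferase HEK293T cells; exposure lasted 16 hr at 37 °C and 5% CO2, followed by ONE-Glo luminescence detection after 30 min.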
Potency means the concentration at half of the fitted maximal effect; tags describe the fitted curve by direction and shape.

| Structure (SMILES) | Potency |
| --- | --- |
| O=C(NCC1CCCO1)c1cc2nc(-c3ccco3)cc(C(F)(F)Cl)n2n1 (stereo not drawn) | inactive |
| Cn1c(=O)c2sccc2n2c(CCCC(=O)Nc3ccc(F)cc3F)nnc12 | inactive |
| Cc1nn2c(-c3ccccc3)ccnc2c1Br | inactive |
| CCn1c(=S)[nH]c2cc(S(=O)(=O)N3CCCCC3)ccc21 | active: 9.2 µM |
| CCN(CCCNc1ncnc2nc[nH]c12)c1cccc(C)c1 | inconclusive: 32.6 µM [activator, partial curve, poor fit] |
| Cc1cc2c(=O)oc(-c3ccc(Br)cc3)nc2s1 | inconclusive: 25.9 µM [activator, partial curve, poor fit] |
| O=C(NC(=S)N1CCCc2ccccc21)c1ccc(Cl)cc1 | inactive |
| Cc1ccc(C(=O)NC2CCC(C)CC2)s1 (stereo not drawn) | inconclusive: 2.91 µM [activator, partial curve] |
| CN1CCN(/N=C/c2ccc(Cl)c(Cl)c2)CC1 | inconclusive: 16.4 µM [activator, partial curve] |
| COc1ccc(OC)c(C(C)NC(=O)c2ccco2)c1 (stereo not drawn) | inactive |
| Brc1c(-c2ccccc2)nc2n1Cc1ccccc1-2 | active: 18.3 µM |
| CSc1ccccc1NC(=O)COc1ccc(Cl)cc1C | inactive |
| CCCNC(=O)c1noc2c1CCc1cc(OC)ccc1-2 | inconclusive: 1.83 µM [activator, full curve, poor fit] |
| Cc1ccc([N+](=O)[O-])cc1N/C=C1\CCCCC1=O | inconclusive: 2.31 µM [activator, partial curve, poor fit] |
| Cc1cc(OCC(=O)Nc2ccc(N3CCCC3)cc2)cc(C)c1Cl | inactive |
| COc1ccc(-n2ncc3c(=O)n(Cc4c(F)cccc4Cl)cnc32)cc1 | inconclusive: 16.4 µM [activator, partial curve, poor fit] |
| Oc1ccc(Cl)cc1-c1cc(-c2ccccc2)n[nH]1 | inactive |
| Nc1c(C(=O)Nc2ccc(Cl)cc2)sc2nc(N3CCOCC3)c3c(c12)CCCC3 | inconclusive: 4.11 µM [activator, full curve] |
| COC1CCN(C(=O)C2CCC(=O)N(C3CCCCCC3)C2)CC1 (stereo not drawn) | inconclusive: 14.6 µM [activator, partial curve] |
| CC(=O)c1ccc(N=Nc2ccc(N(C)C)cc2)cc1 | inconclusive: 0.411 µM [activator, partial curve] |
| CN(Cc1cccs1)C(=O)CCCc1c[nH]c2ccccc12 | inconclusive: 23.1 µM [activator, partial curve, poor fit] |
| O=C(O)CSc1ncnc2nc[nH]c12 | inactive |
| Fc1ccccc1Cn1nnc(-c2ccc3c(c2)OCO3)n1 | inconclusive: 2.91 µM [activator, partial curve, poor fit] |
| C/C(=N\NC(=O)c1ccco1)c1cc2ccccc2o1 | inconclusive: 16.4 µM [activator, partial curve, poor fit] |

| Structure (SMILES) | Potency |
| --- | --- |
| CCC(OC(=O)C1=Cc2ccccc2OC1)C(=O)NC1CCCC1 (stereo not drawn) | inconclusive: 29.1 µM [activator, single point] |
| CC(C)=CC(=O)Nc1nnc(-c2ccccc2)s1 | active: 2.91 µM |
| CCc1cccc(NC(=O)C2CCCN2S(=O)(=O)c2ccccc2C(F)(F)F)c1 (stereo not drawn) | inconclusive: 6.51 µM [activator, single point] |
| Cn1c(=O)[nH]c(=O)c2c1nc(NCCCn1ccnc1)n2Cc1cccc(Br)c1 | inconclusive: 23.1 µM [activator, partial curve, poor fit] |
| COc1ccc(OCC(=O)OCC(=O)NC2CCCCC2C)cc1 (stereo not drawn) | inactive |
| O=C(COc1ccc(Cl)cc1Br)Nc1ccccc1N1CCCC1 | inconclusive: 29.1 µM [activator, single point] |
| CCc1ccc(CN(C)C(=O)c2cc(COc3ccc(OC)cc3Cl)on2)nc1 | inconclusive: 14.6 µM [activator, partial curve] |
| C=CCC[C@H](Cc1ccc(F)cc1)C(=O)OC[C@@H](Cc1c[nH]c2ccccc12)NC(=O)[C@H](CC=C)CC(=O)NCCO | inactive |
| Cc1ccc(O)c(-c2cc(-c3cccc(Br)c3)n[nH]2)c1 | active: 23.1 µM |
| O=C(CCC1CCCN(C(=O)c2ccc3c(c2)OCCO3)C1)NCc1ccccc1F (stereo not drawn) | inconclusive: 20.6 µM [activator, partial curve, poor fit] |
| N/C(CS(=O)(=O)c1ccccn1)=N\OC(=O)c1ccccc1Cl | inconclusive: 18.3 µM [activator, partial curve] |
| CSc1nnc(NC(=O)c2cccc(S(=O)(=O)N3CCOCC3)c2)s1 | inactive |
| COc1ccc(NC(=O)Nc2ccccc2SC)cc1 | inconclusive: 16.4 µM [activator, partial curve, poor fit] |
| C/C(=N\NC(=O)c1cc(C)nc2ccccc12)c1ccccn1 | inconclusive: 4.11 µM [activator, single point] |
| Cc1ccc(C)c(S(=O)(=O)N2CCCCC2CCNC(=O)C(=O)NCCc2ccco2)c1 (stereo not drawn) | inactive |
| Cc1cc(OC(C)C(=O)NCc2ccccn2)c2c(C)c(C)c(=O)oc2c1 (stereo not drawn) | inconclusive: 23.1 µM [activator, partial curve, poor fit] |
| Cc1ccc(C)c(OCC(=O)O/N=C(\N)c2ccccn2)c1 | inconclusive: 11.6 µM [activator, partial curve] |
| Cc1cc2nn(-c3cccc4ccccc34)nc2cc1N | active: 13 µM |
| CCc1cc(C=NC2CCCCC2)c(O)s1 | inactive |
| CCCCOc1ccc(CSc2nnc(C)n2N)cc1[N+](=O)[O-] | inactive |
| O=C(NCCc1cccc(Cl)c1)c1ccc(OC2CCN(Cc3ccccn3)CC2)cc1 | inconclusive: 9.2 µM [activator, partial curve] |
| Cc1ccc(-c2csc(-c3ccncc3)n2)cc1 | inconclusive: 14.6 µM [activator, partial curve, poor fit] |
| CCOC(=O)Nc1ccc(NC(=O)c2ccccc2F)cc1 | inconclusive: 29.1 µM [activator, single point] |
| O=C(C1CC(=O)N(c2ccc(Cl)cc2)C1)N1CCN(Cc2ccc3c(c2)OCO3)CC1 (stereo not drawn) | inactive |
